Reference: patent EP3048116A1 (International-Drug-Development-Biotech, dated 2016)

Biological target: T1, Purified human sDR5 (human, UniProt O14763 56-182, limits assumed)
T1 construct: Analyte in the Biacore assay; only called 'purified human sDR5'
Assay: SPR (Biacore), MAb captured on immobilised GAH, sDR5 injected at 40 nM to 2.5 nM

Kd: 0.276 nM
B1: Hz033-Mut0 (antibody, human IgG1, kappa)
heavy: EVQLQQSGAEVVKPGASVKLSCKASGFNIKDTFIHWVKQAPGQGLEWIGRIDPANGNTKYDPKFQGKATITTDTSSNTAYMELSSLRSEDTAVYYCVRGLYTYYFDYWGQGTLVTVSS[sequence of human IgG1 constant region omitted]
light: EIVMTQSPATLSVSPGERATLSCRASQSISNNLHWYQQKPGQAPRLLIKFASQSITGIPARFSGSGSGTEFTLTISSLQSEDFAVYYCQQGNSWPYTFGQGTKLEIKRTVAAPSVFIFPPSDEQLKSGTASVVCLLNNFYPREAKVQWKVDNALQSGNSQESVTEQDSKDSTYSLSSTLTLSKADYEKHKVYACEVTHQGLSSPVTKSFNRGEC
notes: produced in CHO cells; also called Hz033 native MAb; humanized MAb anti-DR5 Hz033
